Some of these densities may be calculated back from excess volumes.
Assay: xn = mol fraction of the nth substance listed
Settings: 93.2 kPa

NC=O + CCCC[n+]1ccn(C)c1.F[P-](F)(F)(F)(F)F
x2 = 0
Settings | mass density [kg/m3]
288.15 K | 1138
298.15 K | 1129.5
303.15 K | 1125.3

CCCC[n+]1ccn(C)c1.F[P-](F)(F)(F)(F)F + NC=O
mass density [kg/m3]
Settings | 288.15 K | 293.15 K | 298.15 K | 303.15 K
x1 = 0.0502 | 1185.5 | 1181.2 | 1176.8 | 1172.5
x1 = 0.0995 | 1218.4 | 1213.9 | – | 1205.2
x1 = 0.1488 | 1243.2 | 1238.8 | 1234.4 | 1230
x1 = 0.2006 | – | – | 1254.7 | 1250.3
x1 = 0.3001 | 1292.4 | 1288 | – | 1279.2
x1 = 0.3821 | – | 1305.3 | 1300.9 | 1296.5
x1 = 0.4985 | 1328 | 1323.6 | 1319.2 | 1314.9
x1 = 0.595 | – | 1335.3 | 1331 | –
x1 = 0.6976 | 1349.7 | – | – | 1336.6
x1 = 0.7792 | 1356.2 | – | – | 1343
x1 = 0.8902 | 1363.3 | 1359 | 1354.7 | 1350.4
x1 = 1 | 1369 | 1364.7 | – | 1356.3
